According to PubChem BioAssay AID904 (National Center for Advancing Translational Sciences (NCATS), 2007):
Hit rate of the full screen: of about 55,000 compounds, about 530 (0.96%) were called active. Inconclusive means that the source gave no clear call. Such entries were picked first, then a sample of the others. Calls follow the shape of the dose curve; as a rule, active = well fitted cell-killing curve with a large enough effect; inconclusive = small, poorly fitted or top-dose-only effect; inactive = no such curve, though single readings can be large or run the other way. Potencies beside an inconclusive call are fits to weak or partial responses and may not hold up.

Assay: qHTS Screen for Compounds that Selectively Target Cancer Cells with p53 Mutations: Cytotoxicity of p53 Null Cells at the Nonpermissive Temperature; also: nearly all actives have a fitted effect of over 50% in size;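 as to activity, negative = cell killing: 0% = DMSO only and -100% = full killing by 100 µM tamoxifen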
Conditions: H1299 p53-null (neo) cells, 39C, ATPlite viability, 24 h; activity, negative = cell killing: at 46.1 µM (top of the series)
Method in brief: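 Following overnight plating at 37C (600 cells/well), H1299-neo or H1299-p53A138V cells are dosed up to 46 uM. Incubation lasts 24 hr at 39C before ATP detection.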
Potency is read from the fitted curve at half-maximal effect; tags tell the direction and shape of the fitted curve.

Compound | Potency | activity, negative = cell killing
COc1ccc(CN2CCN(Cc3cc(=O)oc4cc(C)ccc34)CC2)c(OC)c1OC | inconclusive: 12.6 µM [cytotoxic, partial curve] | –
CC(C)(C)C(=O)/C(=C\c1ccc([N+](=O)[O-])cc1)n1cncn1 | inconclusive: 35.5 µM [cytotoxic, single point] | –
CCN(c1ccccc1)S(=O)(=O)c1ccc(NC(=O)c2cc(=O)c3cc(C)cc(C)c3o2)cc1 | – | inactive: 43.1%
COc1ccc(Cc2nnc(-c3cccc(C)c3)o2)cc1OC | inconclusive: 31.6 µM [cytotoxic, single point] | –
O=C(Cn1cc(SCc2c(F)cccc2Cl)c2ccccc21)N1CCCCCC1 | – | inconclusive: -30.4% [cytotoxic]
CC(=O)c1ccc(NC(=O)Cn2cc(S(=O)(=O)Cc3cccc(Cl)c3)c3ccccc32)cc1 | inconclusive: 10 µM [cytotoxic, partial curve, poor fit] | –
CCN(CC)CCNC(=O)c1ccc(Cn2c(SCc3ccccc3)nc3cccnc32)cc1 | inconclusive: 12.6 µM [cytotoxic, single point] | –
COCCCNC(=O)c1ccc(NC(=O)c2nsc3ccccc23)cc1 | inconclusive: 20 µM [cytotoxic, partial curve] | –
COc1ccc(OC)c2sc(N3CCN(C(=O)C(C)(C)C)CC3)nc12 | active: 11.2 µM | –
COc1cc(-c2cc(OC)c3c(C)oc(C)c3c(=O)c2)ccc1OC(=O)c1ccccc1Cl | inconclusive: 0.004 µM [cytotoxic, full curve, poor fit] | –
CCc1ccc(C(=O)c2cn(CC(=O)Nc3ccc4c(c3)OCO4)c3cc(OC)c(OC)cc3c2=O)cc1 | inconclusive: 3.16 µM [cytotoxic, single point] | –
O=C(NCCc1ccccc1Cl)c1ccc(Cn2c(=O)c3cccn3c3cccnc32)cc1 | active: 10 µM | –
Cc1ccccc1N1CC(c2nc3ccccc3n2CCC2CCCCC2)CC1=O (stereo unspecified) | – | inactive: -2.63%
O=c1c2cc3ccccc3n2cnn1Cc1ccccc1F | inconclusive: 0.282 µM [cytotoxic, full curve] | –
COc1ccc(NC(=O)Cn2c(SCc3cc(C)ccc3C)nc3ccncc32)c(OC)c1OC | inconclusive: 12.6 µM [cytotoxic, single point] | –
Cc1c(CCNC(=O)c2ccc(Br)o2)sc2nc(-c3ccc(F)cc3)nn12 | inconclusive: 12.6 µM [cytotoxic, partial curve, poor fit] | –
Cc1ccc(C)c(N2CCN(CCCNC(=O)c3cnn(-c4ccccc4Cl)c3C3CCN(C(=O)OC(C)(C)C)CC3)CC2)c1 | active: 12.6 µM | –
Cc1ccc(-c2nc3n(n2)C(=O)CC(c2ccc(Cl)cc2)S3)cc1 (stereo unspecified) | – | inactive: -20.2%
Cc1cccn2c(=O)c(/C=C(\C#N)c3nc4ccccc4[nH]3)c(Oc3ccc(C(C)(C)C)cc3)nc12 | inconclusive: 0.316 µM [cytotoxic, partial curve] | –
O=C(COc1ccccc1)NC1CC(=O)N(c2ccc3c(c2)OCCO3)C1 (stereo unspecified) | – | inactive: 20.8%
CC(=O)c1cccc(NC(=O)c2noc3c2CCCC3)c1 | inconclusive: 15.8 µM [cytotoxic, single point] | –

Compound | Potency | activity, negative = cell killing
CCOc1ccc(NC(=O)Cn2cc(C(=O)c3ccco3)c3ccccc32)cc1 | inconclusive: 35.5 µM [cytotoxic, single point] | –
Cc1ccc(CCNC(=O)C2CCN(Cc3nc(-c4ccccc4C)oc3C)CC2)cc1 | inconclusive: 25.1 µM [cytotoxic, single point] | –
O=S(=O)(Nc1cccc(-c2ccc(N3CCCCCC3)nn2)c1)c1cccc(F)c1 | inconclusive: 17.8 µM [cytotoxic, partial curve, poor fit] | –
Cc1cc(Nc2cccc(Cl)c2)nc2ccc(NC(=O)Cc3cccc(C(F)(F)F)c3)cc12 | inconclusive: 35.5 µM [cytotoxic, partial curve] | –
CCN(CC)S(=O)(=O)c1ccc2c(c1)N(CC(=O)N1CCN(c3ccc(F)cc3)CC1)C(=O)CO2 | – | inactive: 14.5%
COC(=O)C(C)n1nnc2sc(-c3ccccc3)cc2c1=O (stereo unspecified) | inconclusive: 31.6 µM [cytotoxic, single point] | –
COc1ccc(C)cc1NC(=O)Cn1c(=O)ccc2cc(S(=O)(=O)N3CCC(C)CC3)ccc21 | – | inactive: 8.65%
CCOc1ccc(CCNC(=O)c2ccc(CS(=O)Cc3cccc(Cl)c3)o2)cc1 (stereo unspecified) | inconclusive: 15.8 µM [cytotoxic, single point] | –
CCCOc1ccc(C(=O)Nc2ccc(Cl)c(-c3nc4ncccc4o3)c2)cc1 | inconclusive: 31.6 µM [cytotoxic, single point] | –
CCOc1ccc(-c2nc(SCC(=O)NC3CCCC3)c(-c3ccccc3)[nH]2)cc1OC | inconclusive: 14.1 µM [cytotoxic, partial curve] | –
COc1ccc(CNCCC(c2ccccc2)c2ccc3c(c2)OCO3)cc1 (stereo unspecified) | inconclusive: 20 µM [cytotoxic, single point] | –
CC1(C)C(=O)N(CC(=O)Nc2ccc(Br)cc2F)c2ccccc21 | – | inactive: 15.6%
Cn1cnc2c(=O)oc3ccc(S(=O)(=O)Nc4ccc(F)cc4)cc3c21 | inconclusive: 12.6 µM [cytotoxic, single point] | –
CCOc1ccc2nc(NC(=O)c3nc(SC)ncc3Cl)sc2c1 | – | inactive: 15.1%
Cc1ccc(O)c(NC(=O)c2cc(-c3ccccc3O)no2)c1 | – | inactive: -1.89%
CCC(C)NC(=O)c1cccc(NC(=O)c2nsc3ccccc23)c1 (stereo unspecified) | inconclusive: 0.005 µM [cytotoxic, full curve, poor fit] | –
COc1ccc(-c2nc3ccc(NS(=O)(=O)c4ccc(Cl)cc4)cc3o2)cc1 | inconclusive: 35.5 µM [cytotoxic, single point] | –
COc1ccc(CNS(=O)(=O)c2ccc(-c3cnc(C4CC4)o3)cc2)cc1 | inconclusive: 35.5 µM [cytotoxic, single point] | –
COc1ccccc1/C=C/c1nc(C#N)c(NCCc2ccccc2)o1 | inconclusive: 1.26 µM [cytotoxic, single point] | –
CN1CCN(C2(CNC(=O)COc3ccc(C(C)(C)C)cc3)CCCCC2)CC1 | inconclusive: 0.0251 µM [cytotoxic, full curve, poor fit] | –
